Experimental data: the supplement of paper PMC10338343
± gives the standard deviation. The list shows a part of the results, in another mix than the full data.

Test system: MIWI (PIWIL1) piRISC loaded with L1MC piRNA (30 nt)
Test: pre-steady-state target cleavage rate (min^-1); MIWI and MILI are mouse PIWI proteins and EfPiwi is from a freshwater sponge; tags in brackets are library labels; higher = faster piRNA-guided slicing of the target
Conditions: guide: L1MC piRNA 5'p-UAACUAAAUACUAUGCAAGCUGUAGGUCCU
Method in brief: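 With or without 500 nM GTSF1 partner protein, 1 nM active affinity-purified piRISC carrying one synthetic guide was mixed with 0.1 nM transcribed, DNA-blocked target RNA library in HEPES–potassium acetate buffer at 33 °C for 0–8 or 0–960 min. Uncleaved targets were sequenced and normalised to depth and to weakly complementary targets, three trials were pooled, and k3 was capped at 0.0001 min^-1. The pre-steady-state cleavage rate came from a burst-and-steady-state fit.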

[1] = auxiliary factor: 500 nM mouse GTSF1
[2] = auxiliary factor: none (no GTSF1)

Sequence | pre-steady-state target cleavage rate [1] | pre-steady-state target cleavage rate [2]
UCCUGGUUGUGCUUGCAUAGUAUUUAGAAA | 0.0488 ± 0.012 | 0.00481 ± 0.0029
UCCACCCUACAGCUUGCAUAGUAUUUAGUUA | 0.831 ± 0.055 | 0.0575 ± 0.012
UCCACCUACAGUCUUGCAUAGUAUUUAGUUA | 0.731 ± 0.071 | 0.0303 ± 0.006
UCCUGGUACAGCUUGCAUAGUAUUUACUAA | 0.0924 ± 0.023 | 0.00303 ± 0.0025
UGGACCUACACCUUCCAUAGUAUUUAGUUA | 0.012 ± 0.0024 | 0.00279 ± 0.0019
UCGACCUACAGCUUGCAUACUUUUUAGUUA | 0.0508 ± 0.0081 | 0.0053 ± 0.0013
UCCUGGAUGAGCUUACAUAGUAUUUAGUUA | 0.643 ± 0.057 | 0.0151 ± 0.0045
UCCUGGAACACGUUGCAUAGUAUUUAGUAA | 0.241 ± 0.049 | 0.00341 ± 0.0027
UCCUGGAACAGCUUGCUUACUAUUUAGUUA | 0.362 ± 0.025 | 0.0121 ± 0.004
UCCUGGAUGUCCUUGCAUAAUAUUUAGUUA | 0.0261 ± 0.0065 | 0.00475 ± 0.0022
UCCUGGAUGUGCUUGCAUAGUAUUUAGUUA [g2:g20:cont:t1A] | 0.497 ± 0.03 | 0.043 ± 0.0088
UCCUCCUACUGCUUGCAUAGUAUUAAGUUA | 0.414 ± 0.025 | 0.0179 ± 0.0024
UCGACCAACAGCUUGCAUAGUAUUUUCAAA | 0.485 ± 0.049 | 0.00402 ± 0.0023
UGGACCUACAGCUUGCAUAGAAAUUAGUUA | 0.121 ± 0.011 | 0.00373 ± 0.0027
UCCUGGUACAGCUUGCAUUGUAUUUAGUAA | 0.118 ± 0.023 | 0.00535 ± 0.0031
UCGACCAACAGCUUGCAUACUAUUUAGUUA | 0.443 ± 0.02 | 0.0393 ± 0.0093
UCCUGCUGACAGCUUGCAUAGUAUUUAGUUA | 1.07 ± 0.05 | 0.061 ± 0.011
UCCUGGAUCAGGAUGCAUAGUAUUUAGUUA | 0.0609 ± 0.0094 | 0.00329 ± 0.0021
AGGACCUACAGCUAGCUUAGUAUUUAGUUA | 0.935 ± 0.057 | 0.0127 ± 0.0031
UCCUGGAUGAGCUUGCAUACUUUUUAGUUA | 0.00558 ± 0.0034 | 0.00376 ± 0.0015
UCCACCUACAGGUUGCAUAGUAUUUAGUUA | 0.961 ± 0.13 | 0.0211 ± 0.0033
UCCUGGUACAGCUUCGAUAGUAUUUAGUUA | 0.302 ± 0.029 | 0.00319 ± 0.0029

Sequence | pre-steady-state target cleavage rate [1] | pre-steady-state target cleavage rate [2]
AGGACCUACAGCUUGCAUAGUAUUUUAGUUA | 1.08 ± 0.058 | 0.056 ± 0.014
UCCUCCUACAGCUAGCAUACUAUUUAGUUA | 0.32 ± 0.024 | 0.0106 ± 0.0024
UCCACCUAGUCCUUGCAUAGUAUUUAGUUA | 0.613 ± 0.028 | 0.0193 ± 0.0043
UCCUGGAUGAGGUUGCAUAGUAUUUAGUUA | 0.274 ± 0.022 | 0.00581 ± 0.0018
UCCUCCUACAGGUUGCAUAGUAUUAAGUUA | 0.462 ± 0.037 | 0.00954 ± 0.0016
UCCACCUACUGCUUGCAUAGUAUUUACUUA | 0.243 ± 0.025 | 0.0254 ± 0.0034
UCCACCUGCAGCUUGCAUAGUAUUUAGUUA | 1.15 ± 0.13 | 0.0541 ± 0.011
UCCUGGAUGAGCUUGCAUACUAAUUAGUUA | 0.0176 ± 0.0046 | 0.00533 ± 0.0015
UGGACCUACACGCUUGCAUAGUAUUUAGUUA | 1.06 ± 0.06 | 0.0641 ± 0.013
UCCUGCUACAGCUUGCUUACUAUUUAGUUA | 0.535 ± 0.031 | 0.0133 ± 0.0034
UCCUGGUACAGCUUGCAUAGUAUUUCGUUA | 0.217 ± 0.05 | 0.0134 ± 0.0045
UCCUGCUACAGCUUGCAUAGUAUUAAGUUA | 0.584 ± 0.041 | 0.0168 ± 0.0031
UCCAGCUUCAGCUUGCAUAGUAUUUAGUUA | 0.898 ± 0.041 | 0.0465 ± 0.0064
UCCUGCUACAGCUUGCUUAGUAUUUACUUA | 0.233 ± 0.02 | 0.0139 ± 0.0032
UCGACCUACAGCUUGCAUAGUCUUUAGUUA | 0.863 ± 0.03 | 0.0449 ± 0.01
UGGACCUACAGCUUGCAUUGUUUUUAGUUA | 0.0869 ± 0.01 | 0.00751 ± 0.0024
UCCUGCUACAGGUUGCAUAGUAUUUAGAUA | 0.383 ± 0.083 | 0.0108 ± 0.0032
UGGACCUACAGCUUGCAUAGUGUUUAGUUA | 1.15 ± 0.047 | 0.0474 ± 0.0087
UCCUGGAUGAGCUUGCAAAGUAUUUAGAUA | 0.368 ± 0.05 | 0.0124 ± 0.0051
UCCUGCUAUCAGCUUGCAUAGUAUUUAGUUA | 1.04 ± 0.046 | 0.0859 ± 0.018
UCCUGGAUCAGCUUGCAUUGUAUUUUGUUA | 0.285 ± 0.025 | 0.0141 ± 0.006
UCCUGGAACUGCUUGCAUAGUAUUUAGUUA | 0.789 ± 0.027 | 0.0296 ± 0.0071

Sequence | pre-steady-state target cleavage rate [1] | pre-steady-state target cleavage rate [2]
UCCUGGAACAGCUUGCAUACUAUAUAGUUA | 0.125 ± 0.017 | 0.0106 ± 0.004
UCCUGGAUGUGCUUGCUUAGUAUUUAGUUA | 0.109 ± 0.01 | 0.0193 ± 0.0049
UCCUGGAACAGCUUGCAUUGUAUUUAGUAA | 0.443 ± 0.033 | 0.0205 ± 0.0062
UCCUGCUACAGCUUGCAUACUAUUUAGUAA | 0.213 ± 0.031 | 0.0115 ± 0.0032
UCCUGGAAGAGCUUGCAUACUAUUUAGUUA | 0.222 ± 0.02 | 0.0207 ± 0.006
AGGACCUACAGCUUGCUUAGUAUAUAGUUA | 0.762 ± 0.071 | 0.0291 ± 0.0082
UCCUGGUACAGCAUGCAUUGUAUUUAGUUA | 0.406 ± 0.026 | 0.013 ± 0.0032
UCCUGGAUGAGCAUGCAUUGUAUUUAGUUA | 0.0771 ± 0.0069 | 0.00614 ± 0.0027
UCCACCUAGAGCUUGCAUAGUUUUUAGUUA | 0.22 ± 0.03 | 0.0119 ± 0.0015
UCGACCUAGAGCUUGCAUUGUAUUUAGUUA | 0.892 ± 0.029 | 0.0238 ± 0.0066
UCCACCUACAGCUUGCAUAGUAUAUAGUUA | 0.594 ± 0.053 | 0.0232 ± 0.0052
UCCUGCUACACGCUUGCAUAGUAUUUAGUUA | 0.645 ± 0.058 | 0.0232 ± 0.0045
AGGUCCUACAGCUUGCAUAGUAUUUACUUA | 0.425 ± 0.052 | 0.0799 ± 0.018
UCCUGGAUCACCUUGCAAAGUAUUUAGUUA | 0.183 ± 0.022 | 0.00642 ± 0.0025
UCGACCUACAGCUUCGAUAGUAUUUAGUUA | 0.911 ± 0.058 | 0.00251 ± 0.0018
UCGACCUACAGCUUGCAUAGUAUUUUCAUA | 0.35 ± 0.043 | 0.00571 ± 0.0037
AGGACCAUCAGCUUGCAUAGUAUUUAGUAA | 0.911 ± 0.057 | 0.0576 ± 0.012
AGGACCUUCAGCUUGCAUACUAUUUAGUUA | 0.37 ± 0.017 | 0.0343 ± 0.0076
UCCUGGAUGAGCUUGCAUAGUUAAUAGUUA | 0.0126 ± 0.0049 | 0.00512 ± 0.0023
UCCACCUACAGCUAGGAUAGUAUUUAGUUA | 1.21 ± 0.039 | 0.00711 ± 0.002
UCGACCUACAGCUUGCACAGUAUUUAGUUA | 1.18 ± 0.032 | 0.051 ± 0.0086
